In PMC5287491:
These are yes or no findings as the source states them, for the method shown. Binding seen in cells or lysates may run through a third protein. Some binding calls cover weakened binding; strength is not graded here.

Key:
Assay in all cases: co-IP
[1] = biological target: HPV8 FLAG/HA-E6 (lentiviral, stably expressed in human keratinocytes) (human papillomavirus 8 (HPV8)) (UniProt P06428)
[2] = biological target: FLAG/HA-tagged wild type HPV8 E6 (pCMV BamNeo, U2OS) (human papillomavirus 8 (HPV8)) (UniProt P06428)
FLAG-tagged SMAD2 = FLAG-tagged SMAD2 (UniProt Q15796)
FLAG-tagged SMAD3 = FLAG-tagged SMAD3 (UniProt P84022)

Substance	binding [1]	binding [2]	binding (FLAG-tagged SMAD2)	binding (FLAG-tagged SMAD3)
SMAD3 (from UniProt P84022 1-425)	binds	binds		
MAML1 (from UniProt Q92585 1-1016)	binds	binds		
SMAD2 (from UniProt Q15796 1-467)	binds	binds		
SMAD4 (from UniProt Q13485 1-552)	no binding			
untagged HPV8 E6 (U2OS) (from UniProt P06428 1-155)			binds	binds
EP300 (from UniProt Q09472 1-2414)	binds	binds		
